Measurements: PubChem BioAssay AID488969 (Vanderbilt High Throughput Screening Facility, 2010)
In all, about 110,000 compounds were measured (“z-score”: median about -0.1, highest 2% from about 2 on). This is one part of the list.

The molecules below were run against Metabotropic glutamate receptor 8 (Rattus norvegicus) (UniProt P70579) (assay: mGluR8 Gi/Go-coupled signaling modulation – cell-based, rat, thallium flux, HTS, primary screen (AID 488969)). Settings: HEK293 rat mGluR8, GIRK (G protein-gated inwardly rectifying potassium channel) thallium flux, FluoZin2; at 10 µM; stronger effect = higher value; submaximal glutamate (EC20) added with thallium.
UniProt P70579, sequence (P70579 whole entry, looked up): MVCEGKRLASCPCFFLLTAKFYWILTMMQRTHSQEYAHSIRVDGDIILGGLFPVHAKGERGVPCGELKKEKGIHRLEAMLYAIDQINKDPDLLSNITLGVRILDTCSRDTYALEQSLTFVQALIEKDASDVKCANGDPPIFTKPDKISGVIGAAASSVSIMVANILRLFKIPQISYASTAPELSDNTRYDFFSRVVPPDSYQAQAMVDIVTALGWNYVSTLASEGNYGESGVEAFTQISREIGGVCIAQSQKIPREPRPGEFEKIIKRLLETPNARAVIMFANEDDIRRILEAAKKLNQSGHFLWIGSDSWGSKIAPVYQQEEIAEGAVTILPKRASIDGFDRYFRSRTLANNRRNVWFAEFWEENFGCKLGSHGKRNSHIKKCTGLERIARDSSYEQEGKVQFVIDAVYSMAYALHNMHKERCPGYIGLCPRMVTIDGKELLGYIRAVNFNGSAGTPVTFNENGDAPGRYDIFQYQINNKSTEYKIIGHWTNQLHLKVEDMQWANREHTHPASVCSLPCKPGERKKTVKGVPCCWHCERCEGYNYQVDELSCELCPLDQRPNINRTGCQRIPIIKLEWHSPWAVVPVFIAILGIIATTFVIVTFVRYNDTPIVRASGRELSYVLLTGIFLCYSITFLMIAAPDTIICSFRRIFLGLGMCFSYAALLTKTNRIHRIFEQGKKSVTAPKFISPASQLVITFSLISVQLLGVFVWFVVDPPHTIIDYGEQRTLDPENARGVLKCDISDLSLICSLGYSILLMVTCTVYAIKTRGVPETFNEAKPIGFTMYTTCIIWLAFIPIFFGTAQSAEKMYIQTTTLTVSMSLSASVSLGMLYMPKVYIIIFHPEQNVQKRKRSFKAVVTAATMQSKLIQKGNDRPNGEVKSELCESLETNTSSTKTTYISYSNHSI
In the case of `Cc1nn(-c2ccc(Cl)cc2)c2sc(C(=O)c3c(N)n(C)c(=O)n(C)c3=O)cc12`, the z-score is reported as -0.197.
In the case of `CCn1c(SCC(=O)c2c[nH]c3ccccc23)nnc1-c1cccs1`, the z-score is reported as -0.0833.
`Cc1ccc(C(=O)/C=C/Nc2ccc([N+](=O)[O-])cc2Br)cc1` gave a z-score of -0.31.
`N=C1SCC(=O)N1c1nc(-c2ccccc2)cs1` showed a z-score of -0.104.
With `CN(c1ccc(OCC(=O)OCC(=O)Nc2ccccc2F)cc1)S(=O)(=O)c1cccs1` the z-score was -2.6.
`N#Cc1cnc2ncnn2c1-c1ccccc1` showed a z-score of 0.145.
For `O=c1c2c(C(F)(F)F)cc(C(F)(F)F)nc2[nH]n1-c1ccccc1`, the z-score was -0.197.
`CCOC(=O)c1[nH]c2cc(OC)c(OC)cc2c1NC(=O)c1ccc2c(c1)OCO2` gave a z-score of -0.191.
For `COc1ccc(OCC(=O)Nc2ncc3c(n2)CC(C)(C)CC3=O)cc1`, the z-score was -1.03.
`CCCCNC(=O)C1CC(c2ccccc2[N+](=O)[O-])=NO1` (stereo not given) showed a z-score of -0.187.
Molecule `COc1ccc(OC(=O)c2cc(S(=O)(=O)N3CCCC3)ccc2Cl)cc1` has a z-score of 0.41.
`C/C(CCc1ccco1)=N/NC(=O)CCC(=O)Nc1ccc(Br)cc1` was tested, and the z-score was 0.8.
`CCOC(=O)C1CCN(C(=O)CN(c2ccc3c(c2)OCO3)S(C)(=O)=O)CC1` showed a z-score of -0.411.
Molecule `COc1ccc(OCC(O)Cn2ccnc2C)cc1` (stereo not given) has a z-score of 0.00945.
In the case of `CC(=O)Nc1nonc1NC(=O)c1ccc(C(C)(C)C)cc1`, the z-score is reported as -0.87.
With `CCc1c(C(=O)NNC(=S)NCC(C)C)csc1C` the z-score was 0.611.
`Cc1cccc(NC(=O)CN(C)S(=O)(=O)c2cccc3cccnc23)c1` was tested, and the z-score was 1.29.
For `CCOP(=O)(OCC)c1nc(-c2cccc3ccccc23)oc1N1CCOCC1`, the z-score was 0.0895.
Work on `Cc1cccc(NCN2C(=O)c3ccncc3C2=O)n1` yielded a z-score of -0.316.
With `Cn1c(CC(=O)Nc2ccccc2)nnc1SCCOc1ccccc1` the z-score was -0.232.
`Cn1c(N2CCCCC2)cc(=O)n(C)c1=O` gave a z-score of -0.301.
`Cc1ccc(C)c2[nH]c(=O)c(CN(CCN3CCOCC3)Cc3nnnn3CC3CCCO3)cc12` (stereo not given) showed a z-score of -0.292.
For `COc1ccccc1Nc1nc(C)cc(=O)[nH]1`, the z-score was 0.267.
`C/C(=N\O)c1ccc2c3c([nH]c2c1)CCCC3` showed a z-score of 0.355.
With `Brc1[nH]nc2ccccc12` the z-score was 0.227.
`CN(C)CCCN1CC(C(=O)O)CC1=O` (stereo not given) showed a z-score of -0.354.
In the case of `Cc1ccc(NC(=O)NC(=O)CN2C(=O)NC3(CCCCCCC3)C2=O)c(C)c1`, the z-score is reported as 0.849.
`Cc1c(C(O)CN2CCC(C(N)=O)CC2)c2ccccc2n1C` (stereo not given) showed a z-score of 0.802.
With `Cc1ccsc1/C=C1\SC(N2CC(C)OC(C)C2)=NC1=O` (stereo not given) the z-score was 0.108.
Work on `COCCNC(=O)CN(C(=O)CCC(=O)Nc1ccccn1)c1ccc(F)cc1` yielded a z-score of -0.487.
`O=C(O)COc1ccc2c(c1)CCCC2` gave a z-score of 0.421.
`C=CCC(NCc1ccco1)c1ccc(OC)cc1OC` (stereo not given) showed a z-score of -0.246.
With `C/C(=N/NC(=O)c1ccc2c(c1)OCO2)c1cccc(NC(=O)C(C)(C)C)c1` the z-score was -0.191.
`COC(=O)c1sccc1NC(=O)C1CC2CCC1C2` (stereo not given) was tested, and the z-score was -0.225.
Molecule `CCCCC1OC23CCCCC2C(C#N)(C#N)C1(C#N)C(=N)O3` (stereo not given) has a z-score of 0.072.
Molecule `CO/N=C/c1ccc(Sc2ccccc2N)c([N+](=O)[O-])c1` has a z-score of -0.288.
Molecule `CCCOc1ccc(C2NC(=O)NC2=O)cc1` (stereo not given) has a z-score of -0.976.
In the case of `Cc1ccc(C(=O)COC(=O)C2CC(=O)N(c3nc(-c4ccccc4)cs3)C2)cc1C` (stereo not given), the z-score is reported as -0.0961.
`CC1=NN(c2ccccc2)C(=O)/C1=C\C=C1\N(C)c2ccccc2C1(C)C` showed a z-score of -0.517.
`CCN1C(=O)/C(=C\c2cccn2-c2ccc([N+](=O)[O-])cc2)N(CC)C1=S` gave a z-score of -0.411.
`Cc1oc2c(CN(C)C)c(O)ccc2c(=O)c1-c1ccc2ccccc2n1` showed a z-score of -0.0868.
With `O=C(COc1cccc2ccccc12)NNC(=O)[C@@H]1CCCC[C@@H]1C(=O)O` the z-score was -0.389.
`CCOC(=O)CNC(=O)CNC(=O)Cn1ccc2ccccc2c1=O` gave a z-score of 0.806.
`Nc1nc(SCc2ccccc2Cl)[nH]c(=O)c1-c1ccccc1` gave a z-score of 0.0636.
In the case of `COc1ccc(-c2ncncc2-c2csc(C)n2)c(O)c1`, the z-score is reported as 1.53.
`CC(=O)Nc1ccc(S(=O)(=O)N(c2cccnc2)S(=O)(=O)c2ccc(NC(C)=O)cc2)cc1` gave a z-score of -0.206.
Work on `Cc1ccc(C(C(=O)NC2CCCCC2)N(Cc2ccco2)C(=O)Cn2cnc3ccccc32)cc1` (stereo not given) yielded a z-score of -0.4.
For `Cc1cccc(C)c1OCC(=O)N/N=C/c1cc2c(cc1[N+](=O)[O-])OCO2`, the z-score was 0.124.
With `COc1cc(/C=N/O)c(Br)cc1OCC(=O)Nc1ccccc1C` the z-score was -0.175.
Work on `CNC(=O)OCc1cccc(COC(=O)NC)n1` yielded a z-score of 0.271.
With `Cc1ccc(C(=O)c2cc([N+](=O)[O-])ccc2N2CCOCC2)c(C)c1` the z-score was -0.293.
In the case of `CCCCn1c(C(C)NC(=O)CC)nc2ccccc21` (stereo not given), the z-score is reported as 0.342.
`O=C(Nc1ccccc1N1CCCC1)c1ccco1` was tested, and the z-score was -0.0103.
`Cc1cc(C(C)(C)C)cc(S(=O)(=O)Nc2cccc(C(=O)O)c2)c1C` gave a z-score of -0.43.
For `Cc1ccc(C=Nc2ccc(N(C)C)cc2)o1`, the z-score was -0.209.
